# According to PubChem BioAssay AID686978 (National Center for Advancing Translational Sciences (NCATS), 2013):
# The campaign covered roughly 420,000 compounds. About 64,000 (15%) were called active. The shares of active, inactive and inconclusive entries below differ from those in the screen. Calls follow the shape of the dose curve; as a rule, active = well fitted inhibition curve with a large enough effect; inconclusive = small, poorly fitted or top-dose-only effect; inactive = flat fitted curve, though single readings scatter. Potencies of inconclusive entries are left out as doubtful fits.
# Test: qHTS for Inhibitors of human tyrosyl-DNA phosphodiesterase 1 (TDP1): qHTS in cells in absence of CPT; also: nearly all actives have a fitted effect of over 55% in size
# Conditions: DT40 Tdp1-/- hTDP1 cells, no CPT, ATP luminescence, 48 h; activity change, negative = growth inhibition: at 46.2 µM (top of the series) unless noted
# In short: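 Luminescent ATP content (CellTiter-Glo) served as the growth readout. Knockout chicken DT40 cells expressing human TDP1 were exposed to compounds without camptothecin for a minimum 48 hr at 37 °C.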
# % is scaled to controls: 0 for no effect and ±100 for the full control effect; potency is read from the fitted curve at half-maximal effect; tags tell the direction and shape of the fitted curve.
Structure (SMILES),"activity change, negative = growth inhibition",Potency
CCOC(=O)c1ccc(NC(=O)CSc2nc(N)c(NC(=O)c3ccc(Br)o3)c(=O)[nH]2)cc1,inactive: -16.1%,–
O=C(CN1C(=O)NC2(CCCC2)C1=O)N1CCCSC1=Nc1ccccc1,inactive: -12.8%,–
Cc1cc(NC(=O)CN2C(=O)CC(c3ccco3)Sc3ccccc32)no1 (centres undefined),–,"inconclusive [inhibitor, single point]"
CCC(C)c1ccccc1NC(=O)C(C)N(C)Cc1cccc(OC)c1 (centres undefined),–,active: 16.4 µM
CCc1nc2ccc(C(=O)N(C)CCN(C)C)cn2c1N(C)CCC(C)C,–,"inconclusive [inhibitor, single point]"
COc1ccc(-n2nc(C(=O)NCC(=O)N3CCN(c4ccccn4)CC3)c3ccccc3c2=O)cc1,–,"inconclusive [inhibitor, partial curve]"
O=C(CN1CCN(Cc2ccc3c(c2)OCO3)CC1)c1c[nH]c2ccccc12,–,"inconclusive [inhibitor, single point]"
COc1ccc(C(=S)N2CCN(c3cccc(Cl)c3)CC2)c(OC)c1,–,active: 4.11 µM
CC(=O)c1cccc(NC(=O)CN2CCc3cc4c(cc3C2)OCCCO4)c1,–,"inconclusive [inhibitor, single point]"
CCNc1nc(NCC)n2c(SCC(=O)N3CC4(C)CC3CC(C)(C)C4)nnc2n1 (centres undefined),–,"inconclusive [inhibitor, partial curve]"
O=S(=O)(Nc1nc2ccc(S(=O)(=O)N3CCCC3)cc2s1)c1ccc(F)cc1,inactive: -17.5%,–
COc1ccc(NC(=S)NC(NC(=O)c2cccc3ccccc23)C(Cl)(Cl)Cl)c([N+](=O)[O-])c1 (centres undefined),–,"inconclusive [inhibitor, single point]"
O=C(CN(Cc1ccccc1)C(=O)CCC(=O)Nc1ccccn1)NCc1ccco1,–,"inconclusive [inhibitor, single point]"
CCOc1ccc(-c2csc(/C(C#N)=C\c3ccc(O)c([N+](=O)[O-])c3)n2)cc1,–,active: 4.61 µM
On1c(-c2ccccc2)nc2ccc(Cl)cc21,–,"inconclusive [inhibitor, single point]"
COc1ccccc1CNC(=O)c1cc(-c2ccccc2)n[nH]1,–,"inconclusive [inhibitor, single point]"
CCCCOC(=O)Nc1nnc(CCOCC)s1,inactive: -14.1%,–
CCc1cccc(C)c1N(C(=O)Cn1c(=O)[nH]c2ccccc21)C(C)COC (centres undefined),–,"inconclusive [inhibitor, single point]"
CC(=O)Nc1ccc(S(=O)(=O)NCC2CCC(C(=O)N3CCN(c4ccccn4)CC3)CC2)cc1 (centres undefined),–,"inconclusive [inhibitor, single point]"
